Results: the supplement of paper PMC3334620
Whole data set: some 33,000 sequences, median “E-score (-0.5 to 0.5)” near -0.053, cut for the highest 2% near 0.37. Some of the results follow.

Target: Hap1 (UniProt P0CE41)
Experiment: PBM E-score (8-mer binding enrichment) (E-score (-0.5 to 0.5)); higher = stronger / more preferred TF binding; most listed sequences are background and not binding sites
Conditions: protein concentration: 200 nM; construct: GST-DNA-binding domain
How it was run: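 PURExpress in vitro transcription/translation supplied GST-tagged yeast transcription factors, either full-length or DNA-binding domain. Applied at about 100-200 nM to universal all-10-mer Agilent arrays double-stranded by primer extension, the bound protein was detected with fluorescent anti-GST. E-scores, modified Wilcoxon-Mann-Whitney statistics, were given by the Universal PBM Analysis Suite to ungapped eight-base words pooled with their reverse complements after masliner normalisation.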

Sequence of UniProt P0CE41 (P0CE41 whole entry): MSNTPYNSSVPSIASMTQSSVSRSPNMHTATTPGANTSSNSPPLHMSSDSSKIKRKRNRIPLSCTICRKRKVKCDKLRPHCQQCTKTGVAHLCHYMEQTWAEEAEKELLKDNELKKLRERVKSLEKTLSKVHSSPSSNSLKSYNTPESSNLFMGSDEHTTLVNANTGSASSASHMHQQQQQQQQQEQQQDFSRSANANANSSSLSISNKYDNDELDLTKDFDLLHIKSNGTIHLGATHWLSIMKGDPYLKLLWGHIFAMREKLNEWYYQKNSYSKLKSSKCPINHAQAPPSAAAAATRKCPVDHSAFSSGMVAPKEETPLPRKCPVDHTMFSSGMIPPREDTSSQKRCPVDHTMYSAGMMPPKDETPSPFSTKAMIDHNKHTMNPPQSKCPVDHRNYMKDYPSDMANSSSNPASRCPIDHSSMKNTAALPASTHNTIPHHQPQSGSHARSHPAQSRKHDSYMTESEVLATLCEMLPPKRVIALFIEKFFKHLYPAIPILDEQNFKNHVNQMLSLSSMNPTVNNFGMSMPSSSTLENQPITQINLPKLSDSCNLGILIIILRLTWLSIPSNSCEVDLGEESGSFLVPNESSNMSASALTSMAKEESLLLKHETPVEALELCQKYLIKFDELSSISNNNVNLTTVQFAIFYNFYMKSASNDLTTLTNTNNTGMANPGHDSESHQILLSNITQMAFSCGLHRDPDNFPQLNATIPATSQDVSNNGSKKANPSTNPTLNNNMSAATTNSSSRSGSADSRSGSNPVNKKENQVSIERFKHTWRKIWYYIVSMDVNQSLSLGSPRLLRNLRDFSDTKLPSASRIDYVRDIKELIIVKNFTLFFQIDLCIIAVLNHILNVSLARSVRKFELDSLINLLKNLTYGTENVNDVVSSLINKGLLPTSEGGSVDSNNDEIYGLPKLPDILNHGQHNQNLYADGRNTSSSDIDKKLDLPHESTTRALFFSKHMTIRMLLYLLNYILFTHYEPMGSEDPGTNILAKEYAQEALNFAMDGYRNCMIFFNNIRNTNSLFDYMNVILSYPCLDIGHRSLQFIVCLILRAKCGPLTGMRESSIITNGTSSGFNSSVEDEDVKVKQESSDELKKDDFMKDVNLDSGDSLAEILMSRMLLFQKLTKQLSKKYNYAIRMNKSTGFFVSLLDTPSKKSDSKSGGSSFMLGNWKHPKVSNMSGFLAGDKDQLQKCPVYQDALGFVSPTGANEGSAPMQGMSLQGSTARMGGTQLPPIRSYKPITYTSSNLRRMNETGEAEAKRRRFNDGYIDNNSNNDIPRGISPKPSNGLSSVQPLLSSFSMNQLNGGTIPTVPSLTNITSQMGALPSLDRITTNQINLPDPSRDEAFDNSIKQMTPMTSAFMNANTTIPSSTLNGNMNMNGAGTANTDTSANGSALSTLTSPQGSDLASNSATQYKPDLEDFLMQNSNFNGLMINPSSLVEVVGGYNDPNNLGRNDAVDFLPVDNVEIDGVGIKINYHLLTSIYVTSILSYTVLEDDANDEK

| Sequence | PBM E-score |
| --- | --- |
| GTGTCTTA | -0.121 |
| CGCCATCC | -0.00934 |
| GTAAACAA | 0.0424 |
| GTTCAATA | -0.134 |
| AAGATCCA | -0.0332 |
| CTTTCTTA | -0.125 |
| CTTCCGGA | 0.404 |
| AGTACGCG | -0.0938 |
| GACTCGGC | 0.186 |
| GCGTAATA | -0.00778 |
| TATCCCCA | 0.0486 |
| GAATAGTC | -0.111 |
| ACTGGGTC | -0.135 |
| TGGCGCCA | -0.0689 |
| GGAAAGAA | 0.135 |
| ATGGTATA | -0.254 |
| TGCGCCAA | -0.0214 |
| CGGGGTCA | 0.216 |
| CCTGGGAC | -0.271 |
| CCCTCCCA | -0.0175 |
| AACAAGTA | -0.139 |
| AACCTCTG | -0.182 |
| GCTTACGA | -0.222 |
| AAAGAAAA | -0.0471 |
| CGTCTCAA | -0.225 |

| Sequence | PBM E-score |
| --- | --- |
| GTAATAGA | -0.0486 |
| ATTCTAAC | -0.177 |
| AATTTACA | -0.277 |
| AGTATACG | -0.00941 |
| CCCCTTAC | -0.132 |
| ACTACGCC | -0.098 |
| CAATAGCA | -0.0331 |
| ATAACATC | -0.142 |
| GAGGAATC | -0.00259 |
| AATAACCA | -0.17 |
| AATACAAC | -0.0796 |
| CTTACCAC | -0.0818 |
| ATGATTAC | -0.0853 |
| ACATTCAG | -0.104 |
| AGCCAGTA | -0.178 |
| AAATAAAA | -0.00749 |
| TAGATATA | 0.137 |
| GTTGCGAA | -0.0486 |
| TCGGGCAA | 0.277 |
| AGACAGCG | 0.0184 |
| GTCGGTAA | 0.198 |
| ATATAAAC | -0.0674 |
| CGCACGGC | 0.0537 |
| AGTCGGCC | 0.289 |
| GGGTTTAA | 0.387 |

| Sequence | PBM E-score |
| --- | --- |
| TCCACGAA | -0.146 |
| CATGAGGA | -0.0511 |
| CCCCACGA | -0.11 |
| GACATTAA | 0.102 |
| CGACTTGC | -0.0708 |
| TACAGCTA | -0.159 |
| CGTGAAAC | -0.0905 |
| ACAATGAT | -0.141 |
| GTGAGGAA | -0.0809 |
| ACGCAAAT | 0.0549 |
| AAACGAGT | 0.00304 |
| AACGATGC | -0.264 |
| CTCAATGC | -0.145 |
| AGTTTCAA | -0.135 |
| ATGTTGAA | -0.0843 |
| AGCTCCTC | -0.219 |
| CCGTGCCC | 0.0252 |
| CTCACGTC | -0.0616 |
| CGGGACTA | 0.313 |
| AAAATATG | 0.0591 |
| GAAACGAA | -0.00746 |
| CCCAATTA | -0.0391 |
| CCACATGA | -0.19 |
| GAAGTGAC | -0.0852 |
| CGAAGGGC | -0.00221 |

| Sequence | PBM E-score |
| --- | --- |
| ACGTTTAG | -0.359 |
| GCCAATTA | -0.102 |
| CGTGTGTC | -0.0353 |
| ATGCTTCG | 0.103 |
| ACAGGATC | -0.206 |
| CAGGACCG | -0.00407 |
| CTACAGGA | -0.173 |
| AAATGATC | -0.105 |
| CGGGCTCC | 0.155 |
| GGATGCGA | -0.0284 |
| CTTATCAC | -0.151 |
| AGGAAACT | -0.0902 |
| ACCCTATA | -0.306 |
| ATTCCATC | -0.106 |
| GGCCTTAC | 0.179 |
| CGGGCGGA | 0.356 |
| AAAGATAA | -0.0925 |
| ACCCGGAA | 0.346 |
| CATCCCCG | 0.356 |
| GTCTAGAA | -0.0734 |
| TATTTAGA | -0.00676 |
| CTGAAGGC | -0.295 |
| CAAAATTC | 0.103 |
| ATGATAGC | -0.119 |
| GAAAGTCA | -0.13 |

| Sequence | PBM E-score |
| --- | --- |
| AAAGCCCA | -0.0645 |
| AAGAATTA | -0.0784 |
| TGCCGACA | 0.223 |
| TACAAGCA | -0.03 |
| CCATTGTA | -0.0491 |
| AATGCACT | -0.118 |
| ACGTATAT | -0.168 |
| CCCGAAAC | 0.208 |
| ATCTGGTC | -0.0965 |
| TGATGCAA | -0.223 |
| GACAAACA | -0.0573 |
| GGGCTTCA | 0.0517 |
| ATAGTCAG | -0.152 |
| CAAACGCG | 0.0937 |
| GCGTTAGA | 0.198 |
| AATTAACG | 0.131 |
| ATTACCTC | 0.105 |
| AACGCGAC | -0.0971 |
| ATGCAAAG | -0.0808 |
| ACAATAAT | 0.00982 |
| CGACCTCG | 0.134 |
| TCACGAGA | -0.298 |
| CACTCCTG | -0.202 |
| ACTGAAGC | -0.119 |
| GCACCAGA | -0.207 |

| Sequence | PBM E-score |
| --- | --- |
| AGCCGCAA | 0.0534 |
| CCGCTTTC | 0.0385 |
| CACGTAAG | -0.153 |
| CCGCTGTC | 0.156 |
| AAGCCTGC | -0.0231 |
| ATTGACAA | -0.118 |
| TATACCGA | 0.289 |
| CCAGCAAA | -0.0904 |
| AAATTTGC | -0.0874 |
| AAATACTA | -0.0697 |
| ACCTAGCG | -0.0103 |
| AGGGGCGG | 0.235 |
| ATAGCTGG | 0.0193 |
| CAATAGGG | -0.133 |
| CGAGTCCC | 0.182 |
| ACATTGTC | 0.138 |
| AAACCCAC | 0.147 |
| ATAATCAG | -0.0499 |
| CATGGGTA | -0.172 |
| CGTATGAC | -0.112 |
| GTCTGGTA | -0.161 |
| GATGAAGC | -0.00464 |
| GGCTCGAA | -0.0746 |
| TCTACCCA | -0.144 |
| GAGGACCC | 0.0332 |

| Sequence | PBM E-score |
| --- | --- |
| ACCATAGC | -0.223 |
| ACACGTTA | -0.267 |
| AAAAATTC | -3e-05 |
| AAAAGCAC | -0.0705 |
| CACGTGCG | -0.0329 |
| CACCTCCA | -0.206 |
| TAACAACA | -0.0513 |
| CTTGTTGC | -0.107 |
| ATTAGCCG | 0.154 |
| CTCAAGAG | -0.275 |
| AGCTCTAA | -0.0231 |
| AGCATGCA | -0.236 |
| AGACACCT | -0.0515 |
| CACTAATA | -0.0188 |
| CCTTACCG | 0.232 |
| ATATTGTA | -0.163 |
| ATGTAGAC | -0.198 |
| ATAGTTAG | 0.0318 |
| GTATTGTA | 0.0635 |
| TAGGATGA | 0.00251 |
| ATAGTACG | 0.0477 |
| ATTGGACA | -0.0833 |
| CAATGATC | -0.152 |
| AAGCCAAG | -0.0638 |
| CATCGATG | -0.174 |

| Sequence | PBM E-score |
| --- | --- |
| CACACGGA | 0.239 |
| GGGCTACC | -0.174 |
| CTGCGACA | 0.14 |
| AGATTAAC | -0.0886 |
| ATACCAGG | -0.133 |
| CCACGGGC | 0.0914 |
| ACGCAGAA | -0.0372 |
| ACAATTGA | -0.193 |
| GTTTAAGA | 0.098 |
| ACCGCAGC | 0.0993 |
| CTCTCAGC | -0.316 |
| AGTTTGAA | 0.0865 |
| CCCGCTCG | 0.127 |
| CCAGGATC | -0.0644 |
| ATCACTCG | -0.192 |
| AGCTGCAG | -0.0155 |
| GTTTTAGA | 0.00012 |
| CCTAAAGG | -0.154 |
| AGCAGGTC | 0.0873 |
| AGACTGCA | -0.292 |
| AACAGGAA | -0.241 |
| CATCTGTC | -0.0784 |
| CCAGTCCA | -0.15 |
| CCCAAATC | -0.0854 |
| CCACTACC | 0.073 |

| Sequence | PBM E-score |
| --- | --- |
| CCTCCGAC | 0.28 |
| GGAGCGCC | 0.0877 |
| CTAACACA | -0.0972 |
| CCCGAGCC | 0.366 |
| ATGTTAGA | -0.336 |
| CTATTATA | -0.0331 |
| AAGCACTA | -0.167 |
| CACTAGGA | -0.221 |
| TATTGGCA | -0.102 |
| GCTCCTTA | 0.0409 |
| TCGCCCCA | -0.255 |
| AACTACGA | -0.136 |
| AAGACGGA | 0.0717 |
| TATCTGAA | -0.107 |
| CTCGACCC | -0.0169 |
| GAAGAGAA | -0.00656 |
| ATAGGAGC | 0.0199 |
| AATTTCGA | -0.0634 |
| GTAGATTA | 0.145 |
